In the supplement of paper PMC7826260:
This is one part of the list. Each Rep nickase domain was tested in vitro on the same pool of single strands for 1 h at 37 °C with 3 µM enzyme; only the middle of the 90-letter strands is printed. Values are log2 of uncut reads against the no-enzyme pool; more negative means more cut, near 0 not cut, and no call is made. Reads are scaled to the total; values above 0 arise when much of the pool is cut.

Key:
Assay in all cases: uncleaved DNA left, log2 of reads against the no-enzyme library (log2 ratio); higher = less cleavage (more negative = more Rep cleavage of the k-mer); sequences stand for … in CTCGTCCG…ACCGGAGA
[1] = test system: T1, Rep nickase domain of Muscovy duck circovirus
T1 sequence (protein, residues 1-111, tag omitted): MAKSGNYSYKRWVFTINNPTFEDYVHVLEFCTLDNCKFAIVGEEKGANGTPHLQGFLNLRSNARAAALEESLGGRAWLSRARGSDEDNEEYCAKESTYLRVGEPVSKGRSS
Method: (§1)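 A pool of 90-nt single-stranded DNAs with seven random bases just before the constant AC of the nick site (name = the seven bases) was cut by 3 µM recombinant His6-SUMO-tagged Rep nickase domain (300 nM DNA, 50 mM HEPES pH 8.0, 50 mM NaCl, 1 mM MnCl2, 1 h, 37 °C, three replicates). Uncut DNA was amplified and sequenced.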

[2] = test system: T2, Rep nickase domain of banana bunchy top virus
T2 sequence (protein, residues 1-94, tag omitted): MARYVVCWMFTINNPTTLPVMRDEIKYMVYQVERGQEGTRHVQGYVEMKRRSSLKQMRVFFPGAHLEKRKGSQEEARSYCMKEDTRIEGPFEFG
Method: as §1

[3] = test system: T3, Rep nickase domain of cabbage leaf curl virus
T3 sequence (protein, residues 1-116, tag omitted): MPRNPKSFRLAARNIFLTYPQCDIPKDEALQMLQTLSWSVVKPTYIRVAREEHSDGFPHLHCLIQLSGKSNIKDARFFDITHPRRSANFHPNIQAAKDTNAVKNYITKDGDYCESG
Method: as §1

[4] = test system: T4, Rep nickase domain of chickpea chlorotic dwarf virus
T4 sequence (protein, residues 1-124, tag omitted): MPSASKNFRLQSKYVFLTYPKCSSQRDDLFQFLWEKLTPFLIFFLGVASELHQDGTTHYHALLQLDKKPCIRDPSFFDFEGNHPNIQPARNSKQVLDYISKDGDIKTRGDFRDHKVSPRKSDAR
Method: as §1

[5] = test system: T5, Rep nickase domain of faba bean necrotic yellows virus
T5 sequence (protein, residues 1-98, tag omitted): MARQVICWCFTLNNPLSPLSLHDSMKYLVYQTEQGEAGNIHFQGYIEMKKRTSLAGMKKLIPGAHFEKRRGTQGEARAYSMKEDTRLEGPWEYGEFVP
Method: as §1

[6] = test system: T6, Rep nickase domain of maize striate mosaic virus
T6 sequence (protein, residues 1-117, tag omitted): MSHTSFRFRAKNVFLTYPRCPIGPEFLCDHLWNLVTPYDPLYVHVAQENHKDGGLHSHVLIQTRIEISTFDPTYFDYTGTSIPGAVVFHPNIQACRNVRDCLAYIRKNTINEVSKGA
Method: as §1

[7] = test system: T7, Rep nickase domain of porcine circovirus 2
T7 sequence (protein, residues 2-116, tag omitted): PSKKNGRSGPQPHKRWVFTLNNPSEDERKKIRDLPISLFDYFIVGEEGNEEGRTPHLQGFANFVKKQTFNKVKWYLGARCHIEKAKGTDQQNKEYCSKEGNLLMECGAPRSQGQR
Method: as §1

[8] = test system: T8, Rep nickase domain of tomato yellow leaf curl virus
T8 sequence (protein, residues 1-136, tag omitted): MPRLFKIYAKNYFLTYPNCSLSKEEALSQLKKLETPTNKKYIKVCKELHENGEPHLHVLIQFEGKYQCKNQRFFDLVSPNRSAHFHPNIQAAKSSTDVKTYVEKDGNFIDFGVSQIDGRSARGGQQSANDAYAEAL
Method: as §1

[9] = test system: T9, Rep nickase domain of wheat dwarf virus
T9 sequence (protein, residues 1-137, tag omitted): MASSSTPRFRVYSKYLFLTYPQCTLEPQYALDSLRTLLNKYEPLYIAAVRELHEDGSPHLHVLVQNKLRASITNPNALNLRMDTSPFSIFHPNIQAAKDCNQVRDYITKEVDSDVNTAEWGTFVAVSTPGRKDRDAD
Method: as §1

Sequence	uncleaved DNA left (log2) [1]	uncleaved DNA left (log2) [2]	uncleaved DNA left (log2) [3]	uncleaved DNA left (log2) [4]	uncleaved DNA left (log2) [5]	uncleaved DNA left (log2) [6]	uncleaved DNA left (log2) [7]	uncleaved DNA left (log2) [8]	uncleaved DNA left (log2) [9]
GGCACAG	0.00384	0.091	0.657	1.7	0.0538	1.84	0.1	0.0105	0.129
TGCGTCA	0.0108	-0.126	-0.44	-0.515	-0.0477	-0.599	-0.15	-0.00444	-0.233
GCCGGGT	0.0998	0.102	0.536	0.727	0.118	1.57	0.202	0.0524	0.182
AGACCCT	0.104	0.126	0.957	1.73	0.0708	2.37	0.137	0.108	0.245
TAGCCAT	0.00146	-0.00225	0.124	-0.954	-0.0588	0.593	-2.17	0.136	0.0862
AGCCAAA	0.244	0.212	0.377	0.704	0.136	0.329	0.0886	0.132	0.264
CAAACCG	-0.0517	0.00801	-0.864	-0.215	0.0314	-0.877	0.0964	0.0905	-0.0479
CCCTCCC	-0.156	-0.216	-0.00492	-0.336	-0.0973	-0.135	-0.211	-0.235	-0.273
CACCCAC	-0.134	-0.0457	-0.205	-0.852	-0.272	-0.614	-0.767	-0.169	-0.0827
CATACTC	0.0801	0.0241	-0.0886	-1.37	-0.0736	-0.797	0.0901	-0.0296	-0.0143
GTCACGG	0.0699	0.0861	0.653	1.53	0.0643	2.21	0.154	0.0727	0.124
CCATCGG	-0.0889	0.034	0.276	1.04	-0.164	1.04	-0.0258	-0.224	-0.112
TGACTGA	-0.0128	-0.0898	-0.00442	0.743	-0.0931	1.6	-0.0243	-0.058	-0.00184
TCCTCCA	-0.122	-0.13	-0.00212	-0.857	-0.102	0.189	-0.279	-0.125	-0.131
GGACGGG	0.112	-0.0202	0.636	1.38	0.0382	1.68	0.194	-0.0455	0.0159
CGACTCT	0.0756	-0.111	-0.0123	-0.181	0.0872	0.79	-0.151	0.132	0.0221
TGGTTGC	-0.0424	-0.159	-0.736	-0.52	0.0239	-0.746	-0.00342	0.0311	-0.256
ACTCCTT	-0.0367	0.0403	-0.174	-1.95	-0.0191	-0.531	-0.74	-0.123	0.00129
CTACCCA	-0.283	-0.0524	-0.261	-2.19	-0.133	-0.675	-1.42	-0.0549	-0.0712
ACGGGGG	0.115	-0.00939	0.275	0.528	0.0279	0.285	0.154	-0.0124	-0.0248

Sequence	uncleaved DNA left (log2) [1]	uncleaved DNA left (log2) [2]	uncleaved DNA left (log2) [3]	uncleaved DNA left (log2) [4]	uncleaved DNA left (log2) [5]	uncleaved DNA left (log2) [6]	uncleaved DNA left (log2) [7]	uncleaved DNA left (log2) [8]	uncleaved DNA left (log2) [9]
CGCGAGG	0.0269	0.0341	0.0605	0.715	-0.0729	1.22	0.125	-0.0007	0.00788
ATGACTC	-0.0406	-0.0222	0.0545	0.526	-0.0538	0.522	0.0893	-0.0838	0.055
AGTTTCG	-0.00567	-0.168	-0.889	-0.32	-0.123	-1.22	-0.0516	-0.0752	-0.116
GGATACC	0.134	0.17	0.27	1.01	0.0506	0.957	0.231	0.0283	0.221
CTTCATT	-0.319	-0.0781	-0.15	-2.22	0.0106	-0.597	-1.74	-0.00674	0.208
GTATGCG	0.00187	0.116	-0.324	1.08	-0.0183	0.382	0.186	-0.122	-0.0449
ATATCTA	-0.189	-0.109	-0.22	-1.44	-0.0485	-0.861	-0.359	0.00685	0.0356
TTAAGAC	0.119	0.00883	-1.88	-2.26	0.0433	-0.308	0.166	-0.0135	-0.268
TGTATAC	0.131	0.115	0.438	0.662	0.0437	1.49	0.132	0.00468	0.0895
CTATCAG	0.0396	0.182	-0.71	-0.279	0.137	-1.03	0.237	0.0905	-0.0509
TGGCCAC	-0.000229	0.101	0.324	0.916	-0.0149	1.57	0.147	0.136	0.0925
ATCGGTG	0.0589	-0.0976	-0.429	-0.364	0.0524	-0.803	0.16	0.0407	-0.000246
TTAGATC	0.222	0.129	0.271	0.138	0.183	-0.0618	0.173	0.0895	0.112
ATTAGCC	0.0418	0.0287	-0.426	-0.318	0.045	-1.02	0.146	0.0723	-0.00604
ACTCATC	-0.00373	0.0779	-0.15	-0.174	-0.00378	-1.05	0.106	-0.0487	0.136
TGTACCT	0.0224	0.0308	0.148	-1.06	0.0317	0.62	-0.792	0.132	0.0505
GACTGGG	0.19	0.0676	-0.144	-0.0887	0.209	-0.535	0.281	0.184	0.17
CGGAAGG	0.012	-0.0533	0.104	0.65	-0.00427	0.135	0.0517	-0.0717	0.186
ACGGACG	-0.0356	0.0358	-0.758	-0.582	0.0827	-0.973	0.268	0.0672	-0.0875
TAAAGCG	-0.014	-0.00243	-0.881	-0.0503	0.0337	-0.632	0.093	0.00135	-0.0821
